Measured values reported in paper PMC9911399, “Two distinct binding modes provide the RNA-binding protein RbFox with extraordinary sequence specificity”.
Changes are numbered by the printed parent chain; changes in the protein carry UniProt numbers. The list shows a part of the results.

B1: AGGAAGG (DNA:RNA)
RNA: GGGAGACCGGAAUUCAGAUUGUCCAGGAAGGUUAAAUCCCGUCGUAGCCACCA
DNA 1: CAATCTGAATTCCGGTCTCCC
DNA 2: TGGTGGCTACGACGGGATT
B2: UAGCCGG (DNA:RNA)
RNA: B1 RNA with A25U, G26A, A28C, A29C
DNA 1: CAATCTGAATTCCGGTCTCCC
DNA 2: TGGTGGCTACGACGGGATT
B3: CGACUAG (DNA:RNA)
RNA: B1 RNA with A25C, G27A, A28C, A29U, G30A
DNA 1: CAATCTGAATTCCGGTCTCCC
DNA 2: TGGTGGCTACGACGGGATT
B4: CUUUGAG (DNA:RNA)
RNA: B1 RNA with A25C, G26U, G27U, A28U, A29G, G30A
DNA 1: CAATCTGAATTCCGGTCTCCC
DNA 2: TGGTGGCTACGACGGGATT
B5: UGUUUGC (DNA:RNA)
RNA: B1 RNA with A25U, G27U, A28U, A29U, G31C
DNA 1: CAATCTGAATTCCGGTCTCCC
DNA 2: TGGTGGCTACGACGGGATT
B6: CCCACGA (DNA:RNA)
RNA: B1 RNA with A25C, G26C, G27C, A29C, G31A
DNA 1: CAATCTGAATTCCGGTCTCCC
DNA 2: TGGTGGCTACGACGGGATT
B7: GGGUUUC (DNA:RNA)
RNA: B1 RNA with A25G, A28U, A29U, G30U, G31C
DNA 1: CAATCTGAATTCCGGTCTCCC
DNA 2: TGGTGGCTACGACGGGATT
B8: CCAGUGU (DNA:RNA)
RNA: B1 RNA with A25C, G26C, G27A, A28G, A29U, G31U
DNA 1: CAATCTGAATTCCGGTCTCCC
DNA 2: TGGTGGCTACGACGGGATT
B9: CGCUGUG (DNA:RNA)
RNA: B1 RNA with A25C, G27C, A28U, A29G, G30U
DNA 1: CAATCTGAATTCCGGTCTCCC
DNA 2: TGGTGGCTACGACGGGATT
B10: GAACAGA (DNA:RNA)
RNA: B1 RNA with A25G, G26A, G27A, A28C, G31A
DNA 1: CAATCTGAATTCCGGTCTCCC
DNA 2: TGGTGGCTACGACGGGATT
B11: UGCCUUA (DNA:RNA)
RNA: B1 RNA with A25U, G27C, A28C, A29U, G30U, G31A
DNA 1: CAATCTGAATTCCGGTCTCCC
DNA 2: TGGTGGCTACGACGGGATT
B12: UUAAAUA (DNA:RNA)
RNA: B1 RNA with A25U, G26U, G27A, G30U, G31A
DNA 1: CAATCTGAATTCCGGTCTCCC
DNA 2: TGGTGGCTACGACGGGATT
B13: CGCGCUA (DNA:RNA)
RNA: B1 RNA with A25C, G27C, A28G, A29C, G30U, G31A
DNA 1: CAATCTGAATTCCGGTCTCCC
DNA 2: TGGTGGCTACGACGGGATT
B14: UUCUUCC (DNA:RNA)
RNA: GGGAGACCGGAAUUCAGAUUGUCCUUCUUCCUUAAAUCCCGUCGUAGCCACCA
DNA 1: CAATCTGAATTCCGGTCTCCC
DNA 2: TGGTGGCTACGACGGGATT
B15: GCCUGCU (DNA:RNA)
RNA: B14 RNA with U25G, U26C, U29G, C31U
DNA 1: CAATCTGAATTCCGGTCTCCC
DNA 2: TGGTGGCTACGACGGGATT
B16: UUCGACC (DNA:RNA)
RNA: B14 RNA with U28G, U29A
DNA 1: CAATCTGAATTCCGGTCTCCC
DNA 2: TGGTGGCTACGACGGGATT
B17: AAGAUCC (DNA:RNA)
RNA: B1 RNA with G26A, A29U, G30C, G31C
DNA 1: CAATCTGAATTCCGGTCTCCC
DNA 2: TGGTGGCTACGACGGGATT
B18: GUACGAG (DNA:RNA)
RNA: B1 RNA with A25G, G26U, G27A, A28C, A29G, G30A
DNA 1: CAATCTGAATTCCGGTCTCCC
DNA 2: TGGTGGCTACGACGGGATT
B19: UAUCCCU (DNA:RNA)
RNA: B14 RNA with U26A, C27U, U28C, U29C, C31U
DNA 1: CAATCTGAATTCCGGTCTCCC
DNA 2: TGGTGGCTACGACGGGATT
B20: UUGCUAC (DNA:RNA)
RNA: B14 RNA with C27G, U28C, C30A
DNA 1: CAATCTGAATTCCGGTCTCCC
DNA 2: TGGTGGCTACGACGGGATT
B21: UCGGGCA (DNA:RNA)
RNA: B14 RNA with U26C, C27G, U28G, U29G, C31A
DNA 1: CAATCTGAATTCCGGTCTCCC
DNA 2: TGGTGGCTACGACGGGATT
B22: CGCCGAA (DNA:RNA)
RNA: B1 RNA with A25C, G27C, A28C, A29G, G30A, G31A
DNA 1: CAATCTGAATTCCGGTCTCCC
DNA 2: TGGTGGCTACGACGGGATT
B23: GUUCGUA (DNA:RNA)
RNA: B14 RNA with U25G, C27U, U28C, U29G, C30U, C31A
DNA 1: CAATCTGAATTCCGGTCTCCC
DNA 2: TGGTGGCTACGACGGGATT
B24: AUAUAGG (DNA:RNA)
RNA: B1 RNA with G26U, G27A, A28U
DNA 1: CAATCTGAATTCCGGTCTCCC
DNA 2: TGGTGGCTACGACGGGATT
B25: UUGGUUG (DNA:RNA)
RNA: B14 RNA with C27G, U28G, C30U, C31G
DNA 1: CAATCTGAATTCCGGTCTCCC
DNA 2: TGGTGGCTACGACGGGATT
B26: CGGAUUU (DNA:RNA)
RNA: B1 RNA with A25C, A29U, G30U, G31U
DNA 1: CAATCTGAATTCCGGTCTCCC
DNA 2: TGGTGGCTACGACGGGATT
B27: CUACUAA (DNA:RNA)
RNA: B14 RNA with U25C, C27A, U28C, C30A, C31A
DNA 1: CAATCTGAATTCCGGTCTCCC
DNA 2: TGGTGGCTACGACGGGATT
B28: ACCAAUA (DNA:RNA)
RNA: B1 RNA with G26C, G27C, G30U, G31A
DNA 1: CAATCTGAATTCCGGTCTCCC
DNA 2: TGGTGGCTACGACGGGATT
B29: GCUUAUU (DNA:RNA)
RNA: B1 RNA with A25G, G26C, G27U, A28U, G30U, G31U
DNA 1: CAATCTGAATTCCGGTCTCCC
DNA 2: TGGTGGCTACGACGGGATT
B30: GUUAGAC (DNA:RNA)
RNA: B14 RNA with U25G, C27U, U28A, U29G, C30A
DNA 1: CAATCTGAATTCCGGTCTCCC
DNA 2: TGGTGGCTACGACGGGATT
B31: ACUGUUC (DNA:RNA)
RNA: B14 RNA with U25A, U26C, C27U, U28G, C30U
DNA 1: CAATCTGAATTCCGGTCTCCC
DNA 2: TGGTGGCTACGACGGGATT

Each binder was assayed against T1, RBFOX1 RRM RbFoxmut (Fox-RRM*) (Homo sapiens, UniProt Q9NWB1 109-208, R118D;E147R;N151S;E152T) (assay: EMSA; HiTS-Eq, 1 nM pool, 10 min; buffer printed only for the single-RNA assays: 10 mM Tris pH 7.5, 150 mM NaCl, 3.4 mM EDTA, 0.001% NP-40, 30 C). Conditions: tags: His6 N-terminal (pET28a); label: 5' 32P.
T1 sequence: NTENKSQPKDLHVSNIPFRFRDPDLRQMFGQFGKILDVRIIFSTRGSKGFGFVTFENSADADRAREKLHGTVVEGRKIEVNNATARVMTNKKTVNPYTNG
Procedure, shortened: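 Relative association constants, normalised to the cognate motif, were derived by comparing read counts of each RNA species with those of the control reaction. The RNA sequenced was the free fraction, separated by 8% native PAGE after a 10 min equilibration in 50 µL of 1 nM 5′-radiolabelled RNA (7 randomized nucleotides) with increasing concentrations of purified wild-type or mutant RbFox RRM.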
For B1, the binding signal was 0.0896 KA relative to UGCAUGU.
B2 was tested, and the binding signal was 0.0852 KA relative to UGCAUGU.
In the case of B3, the binding signal is reported as 0.0914 KA relative to UGCAUGU.
B4 was tested, and the binding signal was 0.103 KA relative to UGCAUGU.
B5 was tested, and the binding signal was 0.274 KA relative to UGCAUGU.
In the case of B6, the binding signal is reported as 0.0865 KA relative to UGCAUGU.
For B7, the binding signal was 0.192 KA relative to UGCAUGU.
B8 was tested, and the binding signal was 0.156 KA relative to UGCAUGU.
B9 was tested, and the binding signal was 0.143 KA relative to UGCAUGU.
For B10, the binding signal was 0.102 KA relative to UGCAUGU.
For B11, the binding signal was 0.155 KA relative to UGCAUGU.
In the case of B12, the binding signal is reported as 0.0917 KA relative to UGCAUGU.
With B13 the binding signal was 0.103 KA relative to UGCAUGU.
In the case of B14, the binding signal is reported as 0.0504 KA relative to UGCAUGU.
In the case of B15, the binding signal is reported as 0.127 KA relative to UGCAUGU.
With B16 the binding signal was 0.059 KA relative to UGCAUGU.
With B17 the binding signal was 0.0854 KA relative to UGCAUGU.
With B18 the binding signal was 0.161 KA relative to UGCAUGU.
For B19, the binding signal was 0.0891 KA relative to UGCAUGU.
In the case of B20, the binding signal is reported as 0.124 KA relative to UGCAUGU.
For B21, the binding signal was 0.0689 KA relative to UGCAUGU.
With B22 the binding signal was 0.0999 KA relative to UGCAUGU.
For B23, the binding signal was 0.155 KA relative to UGCAUGU.
With B24 the binding signal was 0.115 KA relative to UGCAUGU.
B25 was tested, and the binding signal was 0.65 KA relative to UGCAUGU.
With B26 the binding signal was 0.0743 KA relative to UGCAUGU.
For B27, the binding signal was 0.109 KA relative to UGCAUGU.
In the case of B28, the binding signal is reported as 0.0825 KA relative to UGCAUGU.
With B29 the binding signal was 0.108 KA relative to UGCAUGU.
For B30, the binding signal was 0.0786 KA relative to UGCAUGU.
With B31 the binding signal was 0.0822 KA relative to UGCAUGU.
